Measurements published in patent US20230110958A1 (Regeneron, published 2023).
Values belong to the binder of their own block, whether it stands above or below them.

Target: T1, murine IL27 receptor (IL27Ra and gp130) on mouse cells (MC9/STAT3-Luc reporter cells; splenic CD4+ T cells) (mouse, UniProt O70394 25-623; Q00560 23-917)
T1 sequence (looked up) 1: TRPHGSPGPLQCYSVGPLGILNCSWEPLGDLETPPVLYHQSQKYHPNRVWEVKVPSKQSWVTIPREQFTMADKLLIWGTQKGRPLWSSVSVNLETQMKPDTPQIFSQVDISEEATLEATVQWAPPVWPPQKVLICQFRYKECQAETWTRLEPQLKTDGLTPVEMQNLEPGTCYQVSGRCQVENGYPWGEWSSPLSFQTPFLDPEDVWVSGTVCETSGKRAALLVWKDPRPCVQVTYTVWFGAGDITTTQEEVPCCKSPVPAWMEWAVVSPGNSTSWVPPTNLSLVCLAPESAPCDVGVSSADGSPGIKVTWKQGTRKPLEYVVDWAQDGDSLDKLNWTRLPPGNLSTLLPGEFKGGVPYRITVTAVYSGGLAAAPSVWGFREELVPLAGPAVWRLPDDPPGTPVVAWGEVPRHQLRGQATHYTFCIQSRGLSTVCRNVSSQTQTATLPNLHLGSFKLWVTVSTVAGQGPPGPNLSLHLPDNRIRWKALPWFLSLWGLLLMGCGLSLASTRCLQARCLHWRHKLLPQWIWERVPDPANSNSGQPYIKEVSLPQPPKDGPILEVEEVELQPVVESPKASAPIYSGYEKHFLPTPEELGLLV
T1 sequence (looked up) 2: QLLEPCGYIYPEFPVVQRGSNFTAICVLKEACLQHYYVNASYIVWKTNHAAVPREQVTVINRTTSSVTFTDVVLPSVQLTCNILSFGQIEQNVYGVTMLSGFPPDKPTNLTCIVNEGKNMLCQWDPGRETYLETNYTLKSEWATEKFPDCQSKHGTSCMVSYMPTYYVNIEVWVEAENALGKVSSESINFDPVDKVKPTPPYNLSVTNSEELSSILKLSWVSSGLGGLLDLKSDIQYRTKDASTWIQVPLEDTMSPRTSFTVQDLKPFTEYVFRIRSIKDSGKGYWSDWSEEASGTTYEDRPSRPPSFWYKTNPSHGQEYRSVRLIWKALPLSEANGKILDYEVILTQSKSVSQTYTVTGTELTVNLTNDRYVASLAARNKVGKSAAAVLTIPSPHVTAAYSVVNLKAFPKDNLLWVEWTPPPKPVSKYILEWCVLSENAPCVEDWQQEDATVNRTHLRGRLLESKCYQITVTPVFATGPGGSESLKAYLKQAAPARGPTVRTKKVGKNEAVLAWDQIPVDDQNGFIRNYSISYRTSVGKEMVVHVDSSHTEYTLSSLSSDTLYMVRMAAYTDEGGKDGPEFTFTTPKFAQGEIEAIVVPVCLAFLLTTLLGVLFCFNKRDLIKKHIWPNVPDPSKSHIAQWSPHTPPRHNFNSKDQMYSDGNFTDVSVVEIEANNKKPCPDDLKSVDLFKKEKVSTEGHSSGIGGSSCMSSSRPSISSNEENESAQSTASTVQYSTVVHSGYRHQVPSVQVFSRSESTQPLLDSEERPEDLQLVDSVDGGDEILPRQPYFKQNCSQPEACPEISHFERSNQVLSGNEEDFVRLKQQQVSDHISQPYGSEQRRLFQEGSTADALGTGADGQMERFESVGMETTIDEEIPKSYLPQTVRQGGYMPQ
Assay: cell-based or functional assay

EC50 (M), STAT3 luciferase, MC9 cells: 2.87e-12 M | FOLD INDUCTION, STAT3 luciferase, MC9 cells: 2.79 fold
B1: IL27M20, EBI3-p28-HSA-mmh (other)
chain: YTETALVALSQPRVQCHASRYPVAVDCSWTPLQAPNSTRSTSFIATYRLGVATQQQSQPCLQRSPQASRCTIPDVHLFSTVPYMLNVTAVHPGGASSSLLAFVAERIIKPDPPEGVRLRTAGQRLQVLWHPPASWPFPDIFSLKYRLRYRRRGASHFRQVGPIEATTFTLRNSKPHAKYCIQVSAQDLTDYGKPSDWSLPGQVESAPHKPGGGGSGGGGSGGGGSGGGGSFPTDPLSLQELRREFTVSLYLARKLLSEVQGYVHSFAESRLPGVNLDLLPLGYHLPNVSLTFQAWHHLSDSERLCFLATTLRPFPAMLGGLGTQGTWTSSEREQLWAMRLDLRDLHRHLRFQVLAAGFKCSKEEEDKEEEEEEEEEEKKLPLGALGGPNQVSSQVSWPQLLYTYQLLHSLELVLSRAVRDLLLLSLPRRPGSAWDSGGGGSGGGGSGGGGS[here about 600 residues without letters]EQKLISEEDLGGEQKLISEEDLHHHHHH

EC50 (M), STAT3 luciferase, MC9 cells: 6.08e-10 M | FOLD INDUCTION, STAT3 luciferase, MC9 cells: 3.95 fold
B2: IL27M22, mEB13-mp28 hIgG1 Fc (Fc fusion)
chain: YTETALVALSQPRVQCHASRYPVAVDCSWTPLQAPNSTRSTSFIATYRLGVATQQQSQPCLQRSPQASRCTIPDVHLFSTVPYMLNVTAVHPGGASSSLLAFVAERIIKPDPPEGVRLRTAGQRLQVLWHPPASWPFPDIFSLKYRLRYRRRGASHFRQVGPIEATTFTLRNSKPHAKYCIQVSAQDLTDYGKPSDWSLPGQVESAPHKPGGGGSGGGGSGGGGSFPTDPLSLQELRREFTVSLYLARKLLSEVQGYVHSFAESRLPGVNLDLLPLGYHLPNVSLTFQAWHHLSDSERLCFLATTLRPFPAMLGGLGTQGTWTSSEREQLWAMRLDLRDLHRHLRFQVLAAGFKCSKEEEDKEEEEEEEEEEKKLPLGALGGPNQVSSQVSWPQLLYTYQLLHSLELVLSRAVRDLLLLSLPRRPGSAWDS[here human IgG1 Fc without letters]
